# Source: the supplement of paper PMC8728848
# Some of the results follow.
# How the values were obtained:
# Assay in all cases: glycan array binding signal (z-score within array); higher = stronger binding
# Settings in all cases: glycan notation: IUPAC condensed, linker removed
# [1] = target: Fuc(a1-3)[Gal3S(b1-4)]GlcNAc
# Outline: (§1)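 The binding signal is a Z-score computed within each array. Data were drawn from 3228 arrays in the Consortium for Functional Glycomics database, restricted to those with a known protein sequence. Scores were averaged over arrays of the same protein sequence at different concentrations or buffers, and over linkers, and negative values can be taken as non-binding.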
# [2] = target: Fuc(a1-3)[Gal3S(b1-4)]GlcNAc6S
# Outline: as §1
# [3] = target: Fuc(a1-3)[GalNAc(b1-4)]GlcNAc
# Outline: as §1
# [4] = target: Fuc(a1-3)[GalNAc(b1-4)]GlcNAc6S
# Outline: as §1
# [5] = target: Fuc(a1-4)GlcNAc
# Outline: as §1
# [6] = target: Fuc(b1-3)GlcNAc
# Outline: as §1
# [7] = target: Gal(a1-2)Gal
# Outline: as §1
# [8] = target: Gal(a1-3)Gal
# Outline: as §1
# [9] = target: Gal(a1-3)Gal(b1-3)GlcNAc
# Outline: as §1
# [10] = target: Gal(a1-3)Gal(b1-3)GlcNAc(b1-2)Man
# Outline: as §1
# [11] = target: Gal(a1-3)Gal(b1-3)GlcNAc(b1-2)Man(a1-3)[Gal(a1-3)Gal(b1-3)GlcNAc(b1-2)Man(a1-6)]Man(b1-4)GlcNAc(b1-4)GlcNAc
# Outline: as §1
# [12] = target: Gal(a1-3)Gal(b1-3)GlcNAc(b1-3)GalNAc
# Outline: as §1
# [13] = target: Gal(a1-3)Gal(b1-3)GlcNAc(b1-6)GalNAc
# Outline: as §1
# [14] = target: Gal(a1-3)Gal(b1-3)[Fuc(a1-4)]GlcNAc(b1-2)Man(a1-3)[Gal(a1-3)Gal(b1-3)[Fuc(a1-4)]GlcNAc(b1-2)Man(a1-6)]Man(b1-4)GlcNAc(b1-4)GlcNAc
# Outline: as §1
# [15] = target: Gal(a1-3)Gal(b1-4)Glc
# Outline: as §1
# [16] = target: Gal(a1-3)Gal(b1-4)GlcNAc
# Outline: as §1
# [17] = target: Gal(a1-3)Gal(b1-4)GlcNAc(b1-2)Man
# Outline: as §1
# [18] = target: Gal(a1-3)Gal(b1-4)GlcNAc(b1-2)Man(a1-3)[Gal(a1-3)Gal(b1-4)GlcNAc(b1-2)Man(a1-6)]Man(b1-4)GlcNAc(b1-4)GlcNAc
# Outline: as §1
# [19] = target: Gal(a1-3)Gal(b1-4)GlcNAc(b1-3)GalNAc
# Outline: as §1
# [20] = target: Gal(a1-3)Gal(b1-4)GlcNAc(b1-6)GalNAc
# Outline: as §1
# [21] = target: Gal(a1-3)Gal(b1-4)[Fuc(a1-3)]GlcNAc
# Outline: as §1
# [22] = target: Gal(a1-3)Gal(b1-4)[Fuc(a1-3)]GlcNAc(b1-2)Man(a1-3)[Gal(a1-3)Gal(b1-4)[Fuc(a1-3)]GlcNAc(b1-2)Man(a1-6)]Man(b1-4)GlcNAc(b1-4)GlcNAc
# Outline: as §1
# [23] = target: Gal(a1-3)GalNAc
# Outline: as §1
# [24] = target: Gal(a1-3)[Gal(a1-4)]Gal(b1-4)GlcNAc
# Outline: as §1
# [25] = target: Gal(a1-4)Gal(b1-3)GlcNAc(b1-2)Man(a1-3)[Gal(a1-4)Gal(b1-3)GlcNAc(b1-2)Man(a1-6)]Man(b1-4)GlcNAc(b1-4)GlcNAc
# Outline: as §1
# [26] = target: Gal(a1-4)Gal(b1-4)Glc
# Outline: as §1
# [27] = target: Gal(a1-4)Gal(b1-4)GlcNAc
# Outline: as §1
# [28] = target: Gal(a1-4)Gal(b1-4)GlcNAc(b1-2)Man(a1-3)[Gal(a1-4)Gal(b1-4)GlcNAc(b1-2)Man(a1-6)]Man(b1-4)GlcNAc(b1-4)GlcNAc
# Outline: as §1
# [29] = target: Gal(a1-4)Gal(b1-4)GlcNAc(b1-3)Gal(b1-4)Glc
# Outline: as §1
# [30] = target: Gal(a1-4)GlcNAc
# Outline: as §1
# [31] = target: Gal(a1-6)Glc
# Outline: as §1
# [32] = target: Gal(b1-2)Gal
# Outline: as §1
# [33] = target: Gal(b1-3)Gal
# Outline: as §1
# [34] = target: Gal(b1-3)Gal(b1-4)GlcNAc
# Outline: as §1
# [35] = target: Gal(b1-3)GalNAc
# Outline: as §1
# [36] = target: Gal(b1-3)GalNAc(a1-3)[Fuc(a1-2)]Gal(b1-4)Glc
# Outline: as §1
# [37] = target: Gal(b1-3)GalNAc(a1-3)[Fuc(a1-2)]Gal(b1-4)GlcNAc
# Outline: as §1
# [38] = target: Gal(b1-3)GalNAc(b1-3)Gal
# Outline: as §1
# [39] = target: Gal(b1-3)GalNAc(b1-3)Gal(a1-4)Gal(b1-4)Glc
# Outline: as §1
# [40] = target: Gal(b1-3)GalNAc(b1-4)Gal(b1-4)Glc
# Outline: as §1
# [41] = target: Gal(b1-3)GalNAc(b1-4)[Neu5Ac(a2-3)]Gal(b1-4)Glc
# Outline: as §1
# [42] = target: Gal(b1-3)GlcNAc
# Outline: as §1
# [43] = target: Gal(b1-3)GlcNAc(a1-3)Gal(b1-4)GlcNAc
# Outline: as §1
# [44] = target: Gal(b1-3)GlcNAc(a1-6)Gal(b1-4)GlcNAc
# Outline: as §1
# [45] = target: Gal(b1-3)GlcNAc(b1-2)Man
# Outline: as §1
binder,measurement,setting,value
LFA (Limax flavus) (protein) MSVLFLAASFLLLASFELVAAQGCPRQDPGDWIVIQRRLNADVNFYRGWADYKHGFGDLRCNFWLGNEKIHQLTSHGRYKLRVEFTFNNKSYFAEYSTFKILGEADKYKLQVGGYSGNAGDALTFHNGMAFSTNDRDNDADSIDCAKVYHGAWWYKTCHESNLNGKWGSKKYGEGLNWKAKTTFTATATSSLLKIKALK,glycan array binding signal (z-score),[1],0.171
same,glycan array binding signal (z-score),[2],-0.362
same,glycan array binding signal (z-score),[3],-0.311
same,glycan array binding signal (z-score),[4],-0.349
same,glycan array binding signal (z-score),[5],-0.263
same,glycan array binding signal (z-score),[6],-0.288
same,glycan array binding signal (z-score),[7],-0.306
same,glycan array binding signal (z-score),[8],-0.132
same,glycan array binding signal (z-score),[9],0.06
same,glycan array binding signal (z-score),[10],-0.22
same,glycan array binding signal (z-score),[11],0.128
same,glycan array binding signal (z-score),[12],0.016
same,glycan array binding signal (z-score),[13],-0.242
same,glycan array binding signal (z-score),[14],0.839
same,glycan array binding signal (z-score),[15],0.013
same,glycan array binding signal (z-score),[16],-0.218
same,glycan array binding signal (z-score),[17],-0.358
same,glycan array binding signal (z-score),[18],-0.074
same,glycan array binding signal (z-score),[19],-0.016
same,glycan array binding signal (z-score),[20],-0.267
same,glycan array binding signal (z-score),[21],-0.153
same,glycan array binding signal (z-score),[22],0.16
same,glycan array binding signal (z-score),[23],0.075
same,glycan array binding signal (z-score),[24],-0.047
same,glycan array binding signal (z-score),[25],-0.353
same,glycan array binding signal (z-score),[26],-0.27
same,glycan array binding signal (z-score),[27],-0.295
same,glycan array binding signal (z-score),[28],-0.253
same,glycan array binding signal (z-score),[29],-0.307
same,glycan array binding signal (z-score),[30],-0.3
same,glycan array binding signal (z-score),[31],-0.229
same,glycan array binding signal (z-score),[32],-0.134
same,glycan array binding signal (z-score),[33],-0.302
same,glycan array binding signal (z-score),[34],-0.199
same,glycan array binding signal (z-score),[35],0.747
same,glycan array binding signal (z-score),[36],-0.301
same,glycan array binding signal (z-score),[37],-0.28
same,glycan array binding signal (z-score),[38],-0.399
same,glycan array binding signal (z-score),[39],-0.197
same,glycan array binding signal (z-score),[40],-0.279
same,glycan array binding signal (z-score),[41],-0.338
same,glycan array binding signal (z-score),[42],-0.322
same,glycan array binding signal (z-score),[43],-0.103
same,glycan array binding signal (z-score),[44],-0.266
same,glycan array binding signal (z-score),[45],-0.244
